# Results: PubChem BioAssay AID588855 (National Center for Advancing Translational Sciences (NCATS), 2011)
# The whole screen tested about 410,000 compounds, of which about 5,000 (1.2%) were called active. Inconclusive results, whose numbers are uncertain, are shown with a selection of clear calls. Calls follow the shape of the dose curve; as a rule, active = well fitted inhibition curve with a large enough effect; inconclusive = small, poorly fitted or top-dose-only effect; inactive = no such curve, though single readings can be large or run the other way. A potency beside an inconclusive call is a rough fit, not a confirmed value.
# Assay: qHTS for Inhibitors of TGF-b; also: nearly all actives have a fitted effect of over 65% in size
# Settings: HepG2 CAGA-GFP TGF-b/SMAD3 reporter, GFP fluorescence, 18 h, TGF-beta stimulated, 500 pg/mL final; series mostly up to 46.1 µM; activity, negative = inhibition: at the top concentration
# How it was run: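 HEPG2 CAGA-GFP reporter cells (1000/well, DMEM with 1% FBS) received compounds, then recombinant TGF-beta at 500 pg/mL final for 18 hours at 37 degrees C. Per-cell GFP summed per well was normalised to unstimulated and stimulated DMSO controls before curve fitting.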
# % is scaled to controls: 0 for no effect and ±100 for the full control effect; potency is read from the fitted curve at half-maximal effect; tags tell the direction and shape of the fitted curve.
Compound,Potency,"activity, negative = inhibition"
COc1ccccc1Cc1c(-c2ccco2)nc2c(C)cc(Br)cn12,active: 8.91 µM,
O=C(COC(=O)c1ccc([N+](=O)[O-])o1)NC1CCCc2ccccc21 (stereo unspecified),"inconclusive: 35.5 µM [inhibitor, single point]",
CC1(C)COC2(OC1)C(=O)Nc1ccccc12,,inactive: -1.45%
COc1nccc(NCc2ccccc2)c1C#N,,inactive: 10.1%
Cc1ccc(N2CCN(C(=O)c3ccccc3)CC2)c(C)c1,active: 10 µM,
O=C(Cc1ccc(Cl)cc1)Nc1ccccc1N1CCN(C(=O)c2ccccc2)CC1,"inconclusive: 35.5 µM [inhibitor, single point]",
CC1C(c2ccccc2)N(C)C(c2ccccc2)C(C)C1(O)C#Cc1ccccc1 (stereo unspecified),active: 11.2 µM,
CC(Cc1cccs1)NC(=S)Nc1ccc(Cl)c(Cl)c1 (stereo unspecified),"inconclusive: 35.5 µM [inhibitor, single point]",
Cc1cc(Br)cn2c(Cc3cccc(F)c3)c(-c3ccc(Cl)cc3)nc12,"inconclusive: 15.8 µM [inhibitor, single point]",
O=C(NCCc1nc2ccccc2n1Cc1c(F)cccc1Cl)c1ccco1,"inconclusive: 8.91 µM [inhibitor, partial curve]",
COCCNC(=S)N(CCc1c(C)[nH]c2ccc(F)cc12)Cc1cccs1,"inconclusive: 35.5 µM [inhibitor, single point]",
Cc1ccc(S(=O)(=O)CCNC(=O)Cc2ccccc2)cc1,,inactive: 8.4%
C=CCn1c(SCC(=O)N(CC)C2CCS(=O)(=O)C2)nc2scc(-c3ccccc3)c2c1=O (stereo unspecified),"inconclusive: 35.5 µM [inhibitor, single point]",
COC(=O)C1Cc2ccccc2CN1C(=O)CCl (stereo unspecified),,inactive: -15.2%
NC(=O)c1csc(CCNC(=O)c2ccccc2)n1,,inactive: 0.0372%
CCn1c(CSc2nc3ccccc3s2)n[nH]c1=S,"inconclusive: 35.5 µM [inhibitor, single point]",
COc1ccc(C(CNC(=O)C2CC(=O)N(Cc3ccc(C)cc3)C2)N(C)C)cc1 (stereo unspecified),,inactive: -1.08%
CC(C)(C)OC(=O)N1CCC(c2c(C(=O)N3CCN(c4ccccc4F)CC3)cnn2-c2ccccc2Cl)CC1,"inconclusive: 14.1 µM [inhibitor, single point]",
CCCCc1nc2cc(C(=O)NCc3cn(C)nc3C)ccc2o1,"inconclusive: 2.82 µM [inhibitor, partial curve, poor fit]",
COc1ccccc1NC(=S)NCCN1CCOCC1,,inactive: -1.52%
COc1ccc(C(=O)NCc2cc(C)nc3ccccc23)cc1OC,"inconclusive: 35.5 µM [inhibitor, single point]",
CCOc1cccc2sc(Cl)nc12,"inconclusive: 6.31 µM [inhibitor, single point]",
COc1ccc(CS(=O)(=O)CC(C)(O)c2ccc(Cl)cc2)cc1 (stereo unspecified),"inconclusive: 35.5 µM [inhibitor, single point]",

Compound,Potency,"activity, negative = inhibition"
O=C(O)/C=C/C(=O)Nc1cccc(C(F)(F)F)c1,,inactive: -6.08%
COc1ccc(OC)c(NC(=O)CSc2nnc(NC(=O)c3ccco3)s2)c1,"inconclusive: 17.8 µM [inhibitor, partial curve, poor fit]",
O=C1NC(c2ccccc2)(C(F)(F)F)SC2=CCCCCN12 (stereo unspecified),"inconclusive: 1.12 µM [inhibitor, partial curve]",
CN(C(=O)c1cccc(NC(=O)Cc2cccc(NC(=O)C3CCCN(C(=O)c4ccccc4)C3)c2)c1)C1CC1 (stereo unspecified),"inconclusive: 3.98 µM [inhibitor, full curve, poor fit]",
Cn1cc(Br)c(C(=O)NN2C(=O)C3C(C2=O)C2C=CC3C23CC3)n1 (stereo unspecified),,inactive: 3.13%
CC(=O)Nc1cccc(C(=O)OCC(=O)N2CCN(C(=O)COC(=O)c3cccc(NC(C)=O)c3)CC2)c1,"inconclusive: 0.562 µM [inhibitor, partial curve, poor fit]",
Cc1oc(-c2cccc(Cl)c2)nc1CN1CCC(C(=O)N2CCN(c3ccccc3F)CC2)CC1,"inconclusive: 11.2 µM [inhibitor, partial curve, poor fit]",
O=C(Cc1ccc(Br)cc1)Nc1cccc(S(=O)(=O)N2CCCCC2)c1,"inconclusive: 28.2 µM [inhibitor, single point]",
CCCCCN1C(C(=O)c2ccccc2)=C(NC(=O)c2ccc(C)cc2)c2ccccc2S1(=O)=O,"inconclusive: 1.12 µM [inhibitor, full curve, poor fit]",
COC(=O)c1ccc(COc2cccc3c2CCN(Cc2cccc(C)c2)C3=O)o1,"inconclusive: 35.5 µM [inhibitor, single point]",
COc1ccc(NS(=O)(=O)c2cc(C)ccc2C)cc1,,inactive: -13.5%
CCOC(=O)N1CCN(C(=O)C2CCCN(S(=O)(=O)c3ccc(C)cc3)C2)CC1 (stereo unspecified),,inactive: 7.37%
CCOc1ccc(NC(=O)c2c(NCc3cccnc3)sc3c2CCC(C)C3)cc1 (stereo unspecified),active: 12.6 µM,
Cc1nnc(NC(=O)C2CC(=O)N(c3ccc4c(c3)OCCO4)C2)s1 (stereo unspecified),,inactive: 5.34%
O=C1CSC2(C(=O)N(Cc3ccccc3F)c3ccccc32)N1c1cccc(C(F)(F)F)c1 (stereo unspecified),active: 11.2 µM,
CC(C)(C)C1CCc2onc(C(=O)NCc3ccc(F)cc3)c2C1 (stereo unspecified),"inconclusive: 22.4 µM [inhibitor, single point]",
CC(=O)NC(=S)Nc1ccc(NC(=O)COc2ccc(C(C)C)cc2)cc1,"inconclusive: 7.08 µM [inhibitor, partial curve, poor fit]",
CCN(CC(=O)Nc1ccccc1OC)Cc1csc(CC(=O)Nc2ccc(C)cc2)n1,,inactive: -7.63%
CCOc1ccccc1CNC(=O)CCc1c(C)nn(-c2ccc(N3CCCCC3)nn2)c1C,"inconclusive: 0.708 µM [inhibitor, full curve, poor fit]",
Nn1c(SCC(=O)N2CCCC2=O)nnc1-c1cccs1,,inactive: 24.8%
N=c1n(CCCOc2ccccc2Cl)c2ccccc2n1CC(N)=O,active: 12.6 µM,
Cc1ccc(NS(=O)(=O)c2ccc(-c3cnc(C4CC4)o3)cc2)cc1N(C)C,active: 10 µM,
CC(C)Oc1ccc(C(=O)N2CCC(c3nc4ccccc4o3)CC2)cc1,"inconclusive: 4.47 µM [inhibitor, single point]",
